Assay results published in patent US20230227428A1 (Anaxis Pharma Pty Ltd, priority 2020, published 2023).

Columns and labels:
[1] = tested on: U937 cells; assay: Counter screen: cell viability of U937 cells treated with compound without the TSQ cocktail (off-target effect); conditions: Homo sapiens, U-937, compound in DMSO without the TSQ cocktail, cell viability by CelltiterGlo, read-out: Off-target effect (IC50 cell-based assay)
Description: (§1) Cell Line ID: U937 human histiocytic leukemia cell line.
(§2) The cellular assay was carried out according to the following steps: • 1. Each well was prepared by sequential addition of: • a. DMSO (control; columns 1-2 and 23-24) or compound in DMSO—addition was performed using acoustic transfer of nl volumes of stock compound to give final test concentrations of 36, 12, 4, 1.3, 0.44, 0.148, 0.049, 0.016, 0.005 and 0.002 μM. All wells were backfilled with DMSO to a final total volume in the well of 100 nl. • b. Following compound/DMSO addition in step (a), 40 μL of cell suspension (5×10^5 cells/mL) was added to provide a final cell concentration of 20,000 cells per well, and • c. Following cell addition in step (b), 10 μL of 5×TSQ cocktail (except to positive controls; […]) was added to each well. • 2. After 48 hours, plate was removed from the 37° C. incubator and equilibrated to room temperature for 45 minutes. • 3. 15 μL of room temperature CellTitre-Glo2™ (Promega™) was added to each well. • 4. Shook plates for 2 minutes (˜600 rpm) and incubated at room temperature for 15 minutes to allow signal to stabilise. • 5. Read luminescence readout on a plate reader.
(§3) Curve fitting: 10-point titration curves are fitted with the 4-parameter logistic nonlinear regression model and the IC50 reported is the inflection point of the curve
Counter screen: In parallel, all compounds were tested for their ability to affect cell viability. The same U937 cells were treated with compound in DMSO without the TSQ cocktail. This counter screen enabled evaluation of off-target effects. In this case, cell viability was measured by CelltiterGlo.

[2] = molecular target: T1, RIP3 (Homo sapiens, UniProt Q9Y572); assay: KINOMEscan binding affinity assay, RIP3; conditions: equilibrium dissociation constant
T1 construct: purchased DiscoverX (KINOMEscan service); host or cells: E. coli BL21-derived host (T7 phage) or HEK-293
T1 sequence (Q9Y572 whole entry): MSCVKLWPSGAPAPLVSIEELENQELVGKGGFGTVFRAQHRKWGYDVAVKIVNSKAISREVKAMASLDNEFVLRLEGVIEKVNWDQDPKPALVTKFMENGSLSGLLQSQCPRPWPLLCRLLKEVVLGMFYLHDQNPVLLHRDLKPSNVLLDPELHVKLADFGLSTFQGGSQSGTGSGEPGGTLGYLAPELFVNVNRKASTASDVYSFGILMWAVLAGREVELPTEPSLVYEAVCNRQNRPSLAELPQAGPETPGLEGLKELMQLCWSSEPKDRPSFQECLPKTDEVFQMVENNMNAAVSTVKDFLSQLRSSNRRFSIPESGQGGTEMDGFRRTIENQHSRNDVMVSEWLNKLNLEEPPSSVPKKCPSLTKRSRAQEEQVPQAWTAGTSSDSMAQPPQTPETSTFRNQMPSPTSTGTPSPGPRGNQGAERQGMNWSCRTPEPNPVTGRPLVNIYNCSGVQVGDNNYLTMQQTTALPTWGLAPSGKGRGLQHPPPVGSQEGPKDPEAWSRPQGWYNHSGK
Source text: (§4) The Hill Slope was set to −1.

[3] = tested on: U937 human histiocytic leukemia cell line; assay: Cellular assay: inhibition of TSQ induced necroptosis, 384 well plate format; conditions: U-937, U937 cells, TSQ cocktail (TNF, Smac mimetic, Q-VD-OPh), 48 hours, CellTitre-Glo, read-out: Inhibition of TSQ-induced necroptosis (IC50 cell-based assay)
Description: Cellular Assay: Screening Compounds for Inhibition of TSQ Induced Necroptosis, 384 Well Plate Format.
as §1
Cell Concentration (cells/well): Final cell density is 20000 cells per well.
Cell growth medium: HT-RPMI medium+7.4% Fetal Bovine Serum (FBS). Cells are cultured in Corning 150 cm^2 tissue culture flasks with vented caps at 37° C./5% CO2.
Incubation: Plates were incubated at 37° C./5% CO2 in a humidified incubator for 48 hours following addition of compounds and death stimuli (TSQ cocktail).
Compound concentration: 36 μM starting concentration, 1:3 dilution, 10 point
DMSO final concentration (% v/v): 0.3%.
Compounds in TSQ cocktail (T: TNF; S: Smac mimetic; Q: Q-VD-OPh) and their final concentrations:
hTNF-Fc (100 ng/ml)—produced by standard procedures as shown in Bossen et al., J Biol Chem, 2006, 281(20), 13964-13971.
Compound A (500 nM)—Smac mimetic, Tetralogic and SYNthesis med chem Q-VD-OPh (10 μM)—MP Biomedicals
as §2
Percent viability was calculated for each compound according to equation (2):
% viability=100×((RawData−NSA)/(TA−NSA) (2)
wherein RawData is the readout of any cell containing a compound of the invention TA is the total activity provided by the luminescence readout from DMSO only wells (columns 2 and 24)=100% viability NSA is the non-specific activity provided by DMSO+TSQ wells (columns 1 and 23)=0% viability
as §3
Analysis: Data was loaded into Dotmatics™ and visualised using the Tibco® Spotfire™ software. points titration curve were fitted with the 4 parameter logistic nonlinear regression model and the IC50 reported reflect the inflection point of the curve for curve fitting.
Assay involving the TSQ cocktail (T: TNF; S: Smac mimetic; Q: Q-VD-OPh): TSQ treatment ensures that cells specifically undergo necroptotic cell death. TNF activates the TNF receptor, Smac mimetic directs the signal away from proinflammatory signaling and toward the RIP1/RIP3-mediated cell death pathways, and Q-VD-OPh ensures that the apoptotic response is blocked leaving only the programmed necrosis response. The compounds' activity (solution in DMSO) tested in this TSQ-induced assay was evaluated by determining the number of viable cells in culture by measuring the amount of ATP present as measured by CelltiterGlo.

[4] = molecular target: T2, RIP1 (Homo sapiens, UniProt Q13546); assay: KINOMEscan binding affinity assay, RIP1; conditions: equilibrium dissociation constant
T2 construct: purchased DiscoverX (KINOMEscan service); host or cells: E. coli BL21-derived host (T7 phage) or HEK-293
T2 sequence (Q13546 1-671): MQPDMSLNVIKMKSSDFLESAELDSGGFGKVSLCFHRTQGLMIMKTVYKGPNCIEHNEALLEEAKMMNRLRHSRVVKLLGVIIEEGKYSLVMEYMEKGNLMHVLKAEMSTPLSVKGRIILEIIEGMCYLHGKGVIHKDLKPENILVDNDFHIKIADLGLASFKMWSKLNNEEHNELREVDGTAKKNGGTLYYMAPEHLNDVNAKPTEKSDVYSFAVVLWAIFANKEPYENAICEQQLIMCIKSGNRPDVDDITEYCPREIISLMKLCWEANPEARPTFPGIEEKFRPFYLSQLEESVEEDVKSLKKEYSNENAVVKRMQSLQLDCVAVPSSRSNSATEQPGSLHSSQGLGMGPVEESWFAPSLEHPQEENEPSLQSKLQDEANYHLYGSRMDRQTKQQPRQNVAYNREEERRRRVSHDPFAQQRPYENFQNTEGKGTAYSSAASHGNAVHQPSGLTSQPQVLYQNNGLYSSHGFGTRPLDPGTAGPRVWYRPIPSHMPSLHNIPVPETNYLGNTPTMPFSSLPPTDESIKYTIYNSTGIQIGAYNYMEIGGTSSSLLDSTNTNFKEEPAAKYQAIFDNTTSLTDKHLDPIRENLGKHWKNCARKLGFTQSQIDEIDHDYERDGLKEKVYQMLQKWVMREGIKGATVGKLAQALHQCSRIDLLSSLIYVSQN
Source text: as §4

[5] = molecular target: T3, MLKL (full length) (Homo sapiens, UniProt Q8NB16); assay: KINOMEscan binding affinity assay, MLKL; conditions: equilibrium dissociation constant
T3 construct: purchased DiscoverX (KINOMEscan service); host or cells: E. coli BL21-derived host (T7 phage) or HEK-293
T3 sequence (Q8NB16 1-471): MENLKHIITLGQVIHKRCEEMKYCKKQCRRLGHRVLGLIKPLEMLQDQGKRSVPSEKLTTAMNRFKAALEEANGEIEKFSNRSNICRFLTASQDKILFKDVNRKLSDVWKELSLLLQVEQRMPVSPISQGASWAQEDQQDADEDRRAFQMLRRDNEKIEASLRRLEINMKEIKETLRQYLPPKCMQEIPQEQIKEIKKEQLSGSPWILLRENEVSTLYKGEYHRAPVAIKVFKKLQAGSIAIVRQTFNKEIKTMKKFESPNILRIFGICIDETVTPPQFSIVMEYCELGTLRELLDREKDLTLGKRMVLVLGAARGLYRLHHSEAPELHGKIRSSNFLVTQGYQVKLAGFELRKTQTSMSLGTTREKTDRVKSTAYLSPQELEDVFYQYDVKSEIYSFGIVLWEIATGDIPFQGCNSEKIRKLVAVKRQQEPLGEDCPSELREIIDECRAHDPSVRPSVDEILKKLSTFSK
Source text: as §4

| Kd [2] | Kd [4] | Kd [5] | SMILES | IC50 [1] | IC50 [3] |
| --- | --- | --- | --- | --- | --- |
| > 1000 nM | 100 to 1000 nM | < 100 nM | COc1cc(Nc2[nH]nc(-c3ccc(NC(=O)N(C)Cc4ccccc4)cc3)c2C(N)=O)ccn1 [Compound 64, 3-(4-(3-benzyl-3-methylureido)phenyl)-5-((2-methoxypyridin-4-yl)amino)-1H-pyrazole-4-carboxamide] | > 1000 nM | 100 to 1000 nM |
| > 1000 nM | > 1000 nM | 100 to 1000 nM | NC(=O)c1c(-c2ccc(NC(=O)N3CCC[C@H](c4ccccc4)C3)cc2)n[nH]c1Nc1cccc(C(F)(F)F)n1 [Compound 82, (R)-N-(4-(4-carbamoyl-5-((6-(trifluoromethyl)pyridin-2-yl)amino)-1H-pyrazol-3-yl)phenyl)-3-phenyl-piperidine-1-carboxamide] | > 1000 nM | > 1000 nM |
| > 1000 nM | < 100 nM | < 100 nM | NC(=O)c1c(-c2ccc(NC(=O)N3CCCC(c4cccc(Cl)c4)C3)cc2)n[nH]c1Nc1cnccn1 (centres unmarked) [Compound 96, N-(4-(4-carbamoyl-5-(pyrazin-2-ylamino)-1H-pyrazol-3-yl)phenyl)-3-(3-chlorophenyl)piperidine-1-carboxamide] | > 1000 nM | 100 to 1000 nM |
| > 1000 nM | 100 to 1000 nM | 100 to 1000 nM | COc1ccc(C2CCCN(C(=O)Nc3ccc(-c4n[nH]c(Nc5cnccn5)c4C(N)=O)cc3)C2)cc1 (centres unmarked) [Compound 88, N-(4-(4-carbamoyl-5-(pyrazin-2-ylamino)-1H-pyrazol-3-yl)phenyl)-3-(4-methoxyphenyl)piperidine-1-carboxamide] | > 1000 nM | 100 to 1000 nM |
